# From publication PMC4336329 (PLoS ONE, 2015)
# Screen size: about 310,000 compounds; about 2,200 (0.71%) showed an effect of 50% or more. Effects have a minus sign here. This is one part of the list.
# Biological target: human ether-à-go-go-related gene (hERG) potassium channel (human, UniProt Q12809)
# Assay: primary screen, population patch clamp on CHO cells stably expressing hERG
# Chain of human ether-à-go-go-related gene (hERG) potassium channel (Q12809 whole entry, looked up): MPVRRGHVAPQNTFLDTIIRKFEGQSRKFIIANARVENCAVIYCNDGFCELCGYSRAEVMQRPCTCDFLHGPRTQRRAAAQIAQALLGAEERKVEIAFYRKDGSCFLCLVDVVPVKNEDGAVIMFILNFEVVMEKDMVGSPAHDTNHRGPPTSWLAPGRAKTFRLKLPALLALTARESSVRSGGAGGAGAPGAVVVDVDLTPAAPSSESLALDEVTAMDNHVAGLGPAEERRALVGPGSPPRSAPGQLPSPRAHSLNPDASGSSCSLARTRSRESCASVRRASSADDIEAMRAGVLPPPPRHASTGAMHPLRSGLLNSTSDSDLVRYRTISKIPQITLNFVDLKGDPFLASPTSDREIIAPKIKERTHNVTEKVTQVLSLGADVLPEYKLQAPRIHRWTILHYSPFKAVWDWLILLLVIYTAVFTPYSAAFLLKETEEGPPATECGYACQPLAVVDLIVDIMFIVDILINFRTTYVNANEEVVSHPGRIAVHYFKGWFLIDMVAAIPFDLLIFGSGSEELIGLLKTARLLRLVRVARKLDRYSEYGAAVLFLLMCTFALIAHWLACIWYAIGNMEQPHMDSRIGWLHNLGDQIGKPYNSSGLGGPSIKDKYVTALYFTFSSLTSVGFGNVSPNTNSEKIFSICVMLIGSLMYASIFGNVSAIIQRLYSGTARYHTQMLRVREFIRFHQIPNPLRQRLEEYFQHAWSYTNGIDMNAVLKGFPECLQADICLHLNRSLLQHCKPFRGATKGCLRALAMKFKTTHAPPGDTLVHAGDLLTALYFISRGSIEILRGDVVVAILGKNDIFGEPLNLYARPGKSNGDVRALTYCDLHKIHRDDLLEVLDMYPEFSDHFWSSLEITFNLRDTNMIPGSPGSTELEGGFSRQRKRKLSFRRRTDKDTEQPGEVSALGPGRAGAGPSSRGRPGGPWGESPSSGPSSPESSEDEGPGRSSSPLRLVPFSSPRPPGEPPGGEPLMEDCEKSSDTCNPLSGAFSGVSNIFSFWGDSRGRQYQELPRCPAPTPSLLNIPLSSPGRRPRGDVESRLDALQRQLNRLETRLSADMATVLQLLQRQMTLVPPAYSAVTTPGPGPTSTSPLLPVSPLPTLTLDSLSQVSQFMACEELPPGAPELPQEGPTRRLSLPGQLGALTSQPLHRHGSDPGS
row,Compound,"hERG current change (%, negative = inhibition) at 1uM [%]"
1,Cn1c(SCC(=O)NC2CCCCC2)nnc1-c1cccnc1,7.51
2,CC(NC(=O)c1ccc(OC2CCN(S(=O)(=O)N(C)C)CC2)cc1)C1CC1 (centres unmarked),8.82
3,Cc1ccc(N(CC(=O)NC2CCCCC2)S(=O)(=O)c2c(C)nn(C)c2C)cc1,13.5
4,Cc1nn(C(=O)CCC(=O)NCCc2ccccc2)c2ccccc12,19.9
5,Cc1ccc(C)c(OCC(O)CN2CCC(Cc3ccccc3)CC2)c1.Cl (centres unmarked),-43.1
6,CCCc1cc(=O)[nH]c2nnc(SCC(=O)Nc3ccc(C(C)=O)cc3)n12,3.67
7,C/C(CC(C)C)=N/Nc1ccc([N+](=O)[O-])cc1[N+](=O)[O-],9.93
8,CCCc1cc(=O)n2[nH]c(SCc3ccc(Cl)cc3)nc2n1,15.5
9,COc1ccccc1NC(=O)C1CCN(C(=O)c2ccc(C(C)(C)C)cc2)CC1,6.81
10,Cc1cccc(S(=O)(=O)Nc2nc3ccccc3nc2Nc2cccc(C(=O)O)c2)c1,11.2
11,CCn1c(C)nc2cc(S(=O)(=O)C(F)F)ccc21,-10.2
12,COc1ccccc1CNC(=O)Cn1cnnn1,12.8
13,COc1ccc(C2=NOC(C(=O)NCc3cccs3)C2)cc1 (centres unmarked),21.3
14,O=C(NCc1nnc(SCC(=O)N2CCCC2)o1)c1c(F)cccc1Cl,10.4
15,O=C1C(Cl)=C(NC(=O)c2ccccc2)C(=O)C(Cl)=C1NC(=O)c1ccccc1,11.1
16,CCNC(=S)NCCN1CCCCC1.Cl,13.2
17,Cc1cccc(C)c1NC(=O)CNC(=O)c1c(-c2ccccc2)noc1C,12.8
18,C=CCn1c(Oc2cccc(C)c2)nc2c1c(=O)n(C)c(=O)n2C,10.4
19,O=C(Cc1ccccc1)Nc1ccc(C(=O)Nc2ccccc2C(=O)O)cc1,10.4
20,COc1ccc(C)cc1S(=O)(=O)N(CC(=O)Nc1cccc([N+](=O)[O-])c1)c1ccc(C)cc1,24.6
21,N#Cc1ccccc1Cn1cc(/C=C/[N+](=O)[O-])c2ccccc21,7.33
22,N#CC(CO)(Cc1ccc(OC(F)F)cc1)c1nc2ccccc2[nH]1 (centres unmarked),-12.6
23,O=C(CSc1nnnn1-c1ccc(F)cc1)NC1CCCCC1,8.15

row,Compound,"hERG current change (%, negative = inhibition) at 1uM [%]"
1,COc1ccc(C(=O)c2ccccc2)c(OCC(=O)N(C)C)c1,9.13
2,NC(=O)N/N=C/c1cn(-c2ccccc2)nc1-c1cccs1,0.318
3,O=C(Nc1ccccc1)c1ccc2snnc2c1,13.8
4,Cc1ccccc1CNCCCSc1ncccn1.Cl,24.7
5,CCN1/C(=C/c2ccc3cc(C)ccc3[n+]2CC)Sc2ccccc21.[I-],-100
6,CS(=O)(=O)N(CC(=O)Nc1ccc(Br)cc1F)C1CCCCC1,7.23
7,CCOC(=O)C1CCCN(c2c(Nc3ccc(OCC)cc3)c(=O)c2=O)C1 (centres unmarked),5.74
8,O=C(CSc1cccc[n+]1[O-])Nc1ccc([N+](=O)[O-])cc1Cl,21.8
9,O=C(NCC(=O)N1CCN(c2ncc(C(F)(F)F)cc2Cl)CC1)c1ccc(Br)o1,-7.25
10,Cc1nc(SCCC(=O)O)c2ccccc2n1,9.28
11,COC(=O)C1C(=O)C2=C(CC1C)Nc1ccccc1NC2c1cccs1 (centres unmarked),6.57
12,COc1cc(/C=C(/C#N)C(=O)NCCc2c[nH]c3ccccc23)ccc1OCc1ccccc1F,14.7
13,Cc1nn(-c2ccccc2)c(C)c1NC(=O)COC(=O)c1ccc(S(=O)(=O)C(F)F)cc1,-0.894
14,c1ccc(OCCOCCN2CCOCC2)cc1,7.17
15,Cc1ccc(NS(=O)(=O)c2ccc(-n3cccn3)cc2)nc1,17.2
16,Cn1c(OCc2cccnc2)nc2c1c(=O)n(Cc1ccccc1)c(=O)n2C,-14.4
17,CSc1ccc(-c2c(C#N)c(N)nc3c2CCCC3)cc1,-9.73
18,C/C=C/c1ccc(OCCCCN(C)Cc2ccccc2)c(OC)c1.O=C(O)C(=O)O,6.83
19,COc1cccc(CN2C(=O)C3(C(C#N)=C(N)OC4=C3C(=O)CCC4)c3ccccc32)c1 (centres unmarked),7.85
20,Cc1cccc(/C=C2\Oc3cc(OS(C)(=O)=O)ccc3C2=O)c1,8.42
21,CCCNC(=O)N1CCC(c2ccc3c(c2)OCO3)CC1,7.16
22,COc1ccc(NC(=O)c2cc3ccccc3cc2OC)cc1,8.57
23,CCCNC(=S)N1CCN(C(c2ccccc2)c2ccccc2)CC1,9.6

row,Compound,"hERG current change (%, negative = inhibition) at 1uM [%]"
1,C=CCNC(=O)C1CCCN(S(=O)(=O)c2ccc(-n3cnnn3)cc2)C1 (centres unmarked),-3.3
2,CCOC(=O)C1=C(C)N=C2SC(C)C(=O)N2C1c1ccccc1 (centres unmarked),3.4
3,Cc1cc(NC(=O)CCSc2ccc(Cl)cc2)no1,-3.81
4,Cc1cc(C)nc(SCC(=O)Nc2ccc(Br)cn2)n1,10.6
5,CC1=C(C(=O)Nc2ccc(F)cc2)C(c2cccc(C)c2)n2nc(CCCO)nc2N1 (centres unmarked),9.17
6,CCc1ccc(C(=O)C(C)OC(=O)c2nn(C)c(=O)c3ccccc23)cc1 (centres unmarked),6.2
7,COc1cccc(NC(=S)NC(=O)c2c(Cl)c(C)nn2C)c1,-4.49
8,CCOC(=O)c1cc(C#N)c(N2CCCNCC2)nc1C(F)(F)F,6.49
9,CC(C)[C@H](NC(=O)CCn1nnc2ccccc2c1=O)C(=O)O,17.3
10,COc1ccc(N2C(=O)CC(Nc3ccc(C)cc3)C2=O)cc1 (centres unmarked),1.81
11,O=C(NCC1CCCCC1)C1(CC2CC(c3ccc(Cl)cc3)=NO2)CCNCC1 (centres unmarked),-12.9
12,Cc1cnn(C2CCN(C)CC2)c1N,13.1
13,Cc1ccc(NC(=O)CSc2nn3c(=O)c(C)nnc3s2)cc1Cl,3.57
14,COc1ccccc1OCCOc1ccc(/C=C2\C(=N)N3N=C(C)SC3=NC2=O)cc1,16.9
15,CN(C)c1nnnn1-c1ccc(Cl)cc1Cl,4.61
16,C=CCNC(=O)/C(C#N)=C/c1c(N2CCN(c3ccccc3)CC2)nc2c(C)cccn2c1=O,6.84
17,Cc1ccc(Nc2nnc(SCC(=O)Nc3cccnc3Cl)s2)cc1C,3.22
18,CNc1nc(SCC(=O)Nc2ccc(Cl)c(Cl)c2)nc(N2CCOCC2)n1,3.02
19,O=C(NCCCN1CCCC1=O)c1ccccc1NS(=O)(=O)c1ccc(F)cc1,13
20,Fc1cc(F)cc(NC(=S)N2CCC(c3ccccc3)C2)c1 (centres unmarked),13.5
21,CCCOc1cccc(NC(=O)OC2CCN(C)CC2)c1.O=C(O)/C=C/C(=O)O,1.42
22,Cc1ccc2cc3cc(C(=O)N4CCN(C(=O)c5ccco5)CC4)sc3nc2c1,-5.31
23,Cc1ccc(S(=O)(=O)CCC(=O)OCC(=O)NCCc2ccc(S(N)(=O)=O)cc2)cc1,2.28

row,Compound,"hERG current change (%, negative = inhibition) at 1uM [%]"
1,O=C(COc1cccc(-n2cnnn2)c1)NCCC1=CCCCC1,6.68
2,COc1ccccc1OCc1nnc(SCC(=O)Nc2ccc(N3CCOCC3)cc2)n1C,15.1
3,COc1ccc(-c2ocnc2C(=O)NCc2nn(-c3ccccc3)nc2C)cc1,12.6
4,N#CC12CCCCC1CC1CCCCC1(C#N)N2CCO (centres unmarked),9.07
5,Cc1ccc(S(=O)(=O)CC(=O)NC(C)(C)C)cc1,20.9
6,CCOc1ccc(-n2c(O)c(/C=N/Nc3nnc(C)c(=O)[nH]3)c3ccccc3c2=O)cc1,3
7,N/C(=N\OC(=O)c1ccc(Cl)cc1[N+](=O)[O-])c1cccnc1,7.58
8,CCOC(=O)C1=C(C)NC(=O)NC1/C=C\c1ccccc1 (centres unmarked),15
9,O=C(N/N=C/c1ccc(Br)s1)c1c[nH]c2ccccc12,12.3
10,CN(C)N1C(=O)CC(NNC(=O)c2ccncc2)C1=O (centres unmarked),6.24
11,CCN(CC)S(=O)(=O)c1ccc(OC)c(NC(=O)COc2ccc3c(C)cc(=O)oc3c2)c1,12.1
12,CCO[C@H]1OC(C(=O)NC2CC2)=C[C@@H](c2ccc3c(c2)OCO3)[C@@H]1CCCO,7.75
13,COc1cc(C(=O)N(Cc2ccccc2)c2cccc(C)c2)ccc1OC(F)F,16.3
14,CCOc1ccc2cc(S(=O)(=O)N3CCN(C)CC3)ccc2c1,-6.94
15,CCn1c(=O)cc(OCC(=O)N(C)c2ccccc2F)c2ccccc21,-0.742
16,CC(CO)N1CCS(=O)(=O)CC1 (centres unmarked),13.7
17,Cc1ccc(SCC(=O)NNC(=O)c2ccccc2)c(C)c1,15.7
18,O=C(Cn1ncc2c3ccccc3n(Cc3ccc(F)cc3)c2c1=O)N1CCN(c2ncccn2)CC1,16.2
19,COCCNCCCOc1ccc(C)cc1Br,0.877
20,COc1ccc(NC(=O)COC(=O)c2ccc(Cl)c(S(N)(=O)=O)c2)c([N+](=O)[O-])c1,6.47
